Data: the supplement of paper PMC4604168 (melanoma cell lines)
Some of the results follow. Most values come without repeats; read them as rough.
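Note: cells treated in 1,536-well plates, then fixed and DAPI-stained, with nuclei counted from automated high-throughput microscope images.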

The molecules below were run on SkMel2 (assay: cell count relative to DMSO control; melanoma cells; higher = more viable cells). Conditions: library dose: standard library concentration; 72 h.
Work on N.N.[Cl][Pt][Cl] [cisplatin] + CC(C)(C)c1cnc(CSc2cnc(NC(=O)C3CCNCC3)s2)o1 [SNS-032] (first compound 8 µM, partner dose 0.05 µM) yielded a cell count of 94.1%.
N.N.[Cl][Pt][Cl] [cisplatin] + OCCn1cc(-c2cnc3nnn(Cc4ccc5ncccc5c4)c3n2)cn1 [PF04217903] (first compound 8 µM, partner dose 5 µM) showed a cell count of 98.5%.
With Cn1cc(C2=C(c3cn(C4CCN(Cc5ccccn5)CC4)c4ccccc34)C(=O)NC2=O)c2ccccc21 [Enzastaurin] + N.N.[Cl][Pt][Cl] [cisplatin] (first compound 4 µM, partner dose 8 µM) the cell count was 115%.
C[C@]12O[C@H](C[C@]1(O)CO)n1c3ccccc3c3c4c(c5c6ccccc6n2c5c31)CNC4=O [Lestaurtinib] + OCCn1cc(-c2cnc3nnn(Cc4ccc5ncccc5c4)c3n2)cn1 [PF04217903] (first compound 0.02 µM, partner dose 5 µM) showed a cell count of 104%.
For Cn1cc(C2=C(c3cn(C4CCN(Cc5ccccn5)CC4)c4ccccc34)C(=O)NC2=O)c2ccccc21 [Enzastaurin] + COc1ccc(Cl)c(Nc2nc3ccccc3nc2NS(=O)(=O)c2cccc(NC(=O)C(C)(C)N)c2)c1 [XL147] (first compound 4 µM, partner dose 4 µM), the cell count was 91.2%.
C[As](C)SC[C@H](NC(=O)CC[C@H](N)C(=O)O)C(=O)NCC(=O)O [Darinaparsin] + O=C(O)c1ccc(-c2c[nH]c3ncc(-c4ccccc4)cc23)cc1C1CCCC1 [GSK650394] (first compound 2 µM, partner dose 0.8 µM) showed a cell count of 62.4%.
C[As](C)SC[C@H](NC(=O)CC[C@H](N)C(=O)O)C(=O)NCC(=O)O [Darinaparsin] + COc1cc2ncnc(Nc3ccc(Oc4ccccc4)cc3)c2cc1OC [SrcI1] (first compound 2 µM, partner dose 10 µM) was tested, and the cell count was 96.8%.
In the case of N.N.[Cl][Pt][Cl] [cisplatin] + C=CCNC1=C2C[C@@H](C)C[C@H](OC)[C@H](O)[C@@H](C)/C=C(\C)[C@H](OC(N)=O)[C@@H](OC)/C=C\C=C(/C)C(=O)NC(=CC1=O)C2=O [Tanespimycin] (first compound 8 µM, partner dose 0.01 µM), the cell count is reported as 98.7%.
Molecule C[C@]12O[C@H](C[C@]1(O)CO)n1c3ccccc3c3c4c(c5c6ccccc6n2c5c31)CNC4=O [Lestaurtinib] + Cn1c(Nc2ccc(C(F)(F)F)cc2)nc2cc(Oc3ccnc(-c4ncc(C(F)(F)F)[nH]4)c3)ccc21 [CHIR265] (first compound 0.02 µM, partner dose 0.4 µM) has a cell count of 64%.

What follows are molecules tested on SkMel30 in the same assay as above. Conditions: library dose: standard library concentration; 72 h.
C[C@]12O[C@H](C[C@]1(O)CO)n1c3ccccc3c3c4c(c5c6ccccc6n2c5c31)CNC4=O [Lestaurtinib] + O=C(Nc1cccc(Cl)c1)Nc1ncc(CCNc2ncnc3ccsc23)s1 [SNS314] (first compound 0.02 µM, partner dose 0.004 µM) was tested, and the cell count was 104%.
In the case of N.N.[Cl][Pt][Cl] [cisplatin] + CO[C@H]1C[C@@H]2CC[C@@H](C)[C@@](O)(O2)C(=O)C(=O)N2CCCC[C@H]2C(=O)O[C@H]([C@H](C)C[C@@H]2CC[C@@H](OCCO)[C@H](OC)C2)CC(=O)[C@H](C)/C=C(\C)[C@@H](O)[C@@H](OC)C(=O)[C@H](C)C[C@H](C)/C=C/C=C/C=C/1C [everolimus] (first compound 8 µM, partner dose 0.1 µM), the cell count is reported as 72.4%.
C[C@]12O[C@H](C[C@]1(O)CO)n1c3ccccc3c3c4c(c5c6ccccc6n2c5c31)CNC4=O [Lestaurtinib] + NC(=O)Nc1cc(-c2cccc(F)c2)sc1C(=O)N[C@H]1CCCNC1 [AZD7762] (first compound 0.02 µM, partner dose 0.1 µM) was tested, and the cell count was 65.1%.
C[As](C)SC[C@H](NC(=O)CC[C@H](N)C(=O)O)C(=O)NCC(=O)O [Darinaparsin] + Oc1nc(-c2ccc(C(F)(F)F)cc2)nc2c1CSCC2 [XAV939] (first compound 2 µM, partner dose 10 µM) showed a cell count of 90.7%.
For C[As](C)SC[C@H](NC(=O)CC[C@H](N)C(=O)O)C(=O)NCC(=O)O [Darinaparsin] + COc1ccc2c(c1)CCC1C2CCC2(C)C(NCCCCCCN3C(=O)C=CC3=O)CCC12 [U73122] (first compound 2 µM, partner dose 2 µM), the cell count was 119%.
C[C@]12O[C@H](C[C@]1(O)CO)n1c3ccccc3c3c4c(c5c6ccccc6n2c5c31)CNC4=O [Lestaurtinib] + O=C(O)c1ccc(-c2c[nH]c3ncc(-c4ccccc4)cc23)cc1C1CCCC1 [GSK650394] (first compound 0.02 µM, partner dose 0.8 µM) gave a cell count of 77%.
Cn1cc(C2=C(c3cn(C4CCN(Cc5ccccn5)CC4)c4ccccc34)C(=O)NC2=O)c2ccccc21 [Enzastaurin] + C=C(c1ccc(C(=O)O)cc1)c1cc2c(cc1C)C(C)(C)CCC2(C)C [Bexarotene] (first compound 4 µM, partner dose 10 µM) was tested, and the cell count was 90.6%.
N.N.[Cl][Pt][Cl] [cisplatin] + CO[C@@H]1[C@H](N(C)C(=O)c2ccccc2)C[C@H]2O[C@]1(C)n1c3ccccc3c3c4c(c5c6ccccc6n2c5c31)C(=O)NC4 [Midostaurin] (first compound 8 µM, partner dose 0.4 µM) gave a cell count of 82.6%.
Molecule Cn1cc(C2=C(c3cn(C4CCN(Cc5ccccn5)CC4)c4ccccc34)C(=O)NC2=O)c2ccccc21 [Enzastaurin] + CNC(=O)c1cc(Oc2ccc(NC(=O)Nc3ccc(Cl)c(C(F)(F)F)c3)cc2)ccn1 [sorafenib] (first compound 4 µM, partner dose 2 µM) has a cell count of 84.9%.
Work on Cn1cc(C2=C(c3cn(C4CCN(Cc5ccccn5)CC4)c4ccccc34)C(=O)NC2=O)c2ccccc21 [Enzastaurin] + CC(C)C[C@H](NC(=O)[C@H](Cc1ccccc1)NC(=O)c1cnccn1)B(O)O [Bortezomib] (first compound 4 µM, partner dose 0.005 µM) yielded a cell count of 22.6%.
Cn1cc(C2=C(c3cn(C4CCN(Cc5ccccn5)CC4)c4ccccc34)C(=O)NC2=O)c2ccccc21 [Enzastaurin] + Cc1cc(Nc2cc(N3CCN(C)CC3)nc(/C=C/c3ccccc3)n2)n[nH]1 [ENMD2076] (first compound 4 µM, partner dose 0.2 µM) gave a cell count of 89.4%.
For C[As](C)SC[C@H](NC(=O)CC[C@H](N)C(=O)O)C(=O)NCC(=O)O [Darinaparsin] + Cn1cc(/C=C2\C(=O)Nc3cccnc32)c2ccccc21 [GW441756] (first compound 2 µM, partner dose 2 µM), the cell count was 75.4%.
Molecule C[As](C)SC[C@H](NC(=O)CC[C@H](N)C(=O)O)C(=O)NCC(=O)O [Darinaparsin] + CC(C)(C)c1cnc(CSc2cnc(NC(=O)C3CCNCC3)s2)o1 [SNS-032] (first compound 2 µM, partner dose 0.05 µM) has a cell count of 67.9%.
N.N.[Cl][Pt][Cl] [cisplatin] + CS(=O)(=O)CCNCc1ccc(-c2ccc3ncnc(Nc4ccc(OCc5cccc(F)c5)c(Cl)c4)c3c2)o1 [lapatinib] (first compound 8 µM, partner dose 4 µM) showed a cell count of 107%.
With C[C@]12O[C@H](C[C@]1(O)CO)n1c3ccccc3c3c4c(c5c6ccccc6n2c5c31)CNC4=O [Lestaurtinib] + C[C@]1(c2nc3c(C(N)=O)cccc3[nH]2)CCCN1 [Veliparib] (first compound 0.02 µM, partner dose 7 µM) the cell count was 87.9%.
Molecule Cn1cc(C2=C(c3cn(C4CCN(Cc5ccccn5)CC4)c4ccccc34)C(=O)NC2=O)c2ccccc21 [Enzastaurin] + CN1CCN(c2ccc3nc(-c4c(N)c5c(F)cccc5[nH]c4=O)[nH]c3c2)CC1 [Dovitinib] (first compound 4 µM, partner dose 0.5 µM) has a cell count of 85.6%.
Cn1cc(C2=C(c3cn(C4CCN(Cc5ccccn5)CC4)c4ccccc34)C(=O)NC2=O)c2ccccc21 [Enzastaurin] + C[C@@H](Oc1cc(-c2cnn(C3CCNCC3)c2)cnc1N)c1c(Cl)ccc(F)c1Cl [Crizotinib] (first compound 4 µM, partner dose 1 µM) gave a cell count of 91.9%.
C[As](C)SC[C@H](NC(=O)CC[C@H](N)C(=O)O)C(=O)NCC(=O)O [Darinaparsin] + Cc1cc(SCc2sc(-c3ccc(C(F)(F)F)c(F)c3)nc2C)ccc1OCC(=O)O [GW0742] (first compound 2 µM, partner dose 10 µM) was tested, and the cell count was 103%.
With C[C@]12O[C@H](C[C@]1(O)CO)n1c3ccccc3c3c4c(c5c6ccccc6n2c5c31)CNC4=O [Lestaurtinib] + O=C(O)c1ccc2c(c1)nc(Nc1cccc(Cl)c1)c1ccncc12 [CX4945] (first compound 0.02 µM, partner dose 2 µM) the cell count was 57.2%.
N.N.[Cl][Pt][Cl] [cisplatin] + Clc1ccc(Nc2nnc(Cc3ccncc3)c3ccccc23)cc1 [vatalanib] (first compound 8 µM, partner dose 10 µM) was tested, and the cell count was 70.5%.
Work on Cn1cc(C2=C(c3cn(C4CCN(Cc5ccccn5)CC4)c4ccccc34)C(=O)NC2=O)c2ccccc21 [Enzastaurin] + COc1cc(Nc2ncc(F)c(Nc3ccc4c(n3)NC(=O)C(C)(C)O4)n2)cc(OC)c1OC [Tamatinib] (first compound 4 µM, partner dose 2 µM) yielded a cell count of 85.3%.
